For 86 molecules, TGI and GI50 results are on record in PubChem BioAssay (NCI).

Several values for one entry are separate records, joined by “and”; a condition that tells them apart may be missing. Equal entries are not always repeated.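 In this assay, cells in 96-well plates receive the compound at five concentrations for 48 hours. Endpoints are linearly interpolated between the surrounding concentrations. GI50: concentration for 50% inhibition of growth. At the TGI there is no net growth.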 A value given as a limit tells only on which side of the number the result lay.

The assay has as its system NCI-H322M lung. Briefly: NCI tumour cell line growth inhibition, 48 h.

`CC(=O)OCC(OC(C)=O)C(OC(C)=O)C(OC(C)=O)C(C=NN(C(C)=O)S(=O)(=O)c1ccc(/C=C2\NC(=O)N(C)C2=O)cc1)OC(C)=O` (stereo not drawn) displayed a TGI above 100 µM.
For the molecule `O=C(CSc1nc2ccccc2s1)c1sc2sc3ccccc3[n+]2c1[O-]`, the TGI was above 100 µM.
In the case of `CCOC(=O)c1[nH]c(Br)c(-c2ccc(Br)cc2)c1Br`, the GI50 is 14.7 µM and the TGI was above 100 µM.
`Cc1sc2nc(-c3ccc(Cl)c([N+](=O)[O-])c3)c(/C=N/N=C(N)N)n2c1C`: the TGI stood at 2.96 µM.
As for `C#CCOc1c(C(=O)OCC)c(=O)n(C)c2ccccc12`, the TGI was above 100 µM.
For `Cc1c(-c2c(-c3ccc(F)o3)sc3ncnc(O[C@H](Cc4ccccc4OCc4ccnn4CC(F)(F)F)C(=O)O)c23)ccc(OCCN2CCN(C)CC2)c1Cl`, the GI50 is 4.94 µM and the TGI turned out to be 14.5 µM.
In turn, `COC(=O)c1ccccc1C1CN=NC12Cc1ccc(C)c(C)c1C2=O` (stereo not drawn) registered a TGI above 100 µM.
Still for that read-out and setting: the value for `Cc1nc2sc3ccccc3n2c(=O)c1N=Nc1ccc(Br)cc1` was above 100 µM; that for `Clc1ccc2c(c1)C1C(CO2)C(c2ccccc2)=NN1c1ccccc1` (stereo not drawn) was above 100 µM.
For the molecule `CCOC(=O)C(/C=N\C(=S)Nc1ccc(Cl)c(Cl)c1)=C(/O)c1ccccc1`, the TGI is above 100 µM.
The same measure, in the same setting: the result for `N#C/C(=C/c1ccc[nH]1)P(=O)(O)O` reads above 100 µM; that for `CC1(c2cccc3ccccc23)OC(=O)c2ccccc21` (stereo not drawn), above 100 µM.
For the molecule `CC(=O)[CH-]C(=O)c1ccccc1.CC(=O)[CH-]C(=O)c1ccccc1.CC1(C)C2CCC1(C)C([O-])C2.CC1(C)C2CCC1(C)C([O-])C2.[Ti+4]`, the GI50 is 36.6 µM and the TGI is above 100 µM.
For the molecule `CC(C)=CCNc1ncnc2nc[nH]c12`, the TGI is above 100 µM.
Still for that read-out and setting: the result for `COc1cc(C)c2c(=O)c3ccccc3n(C)c2c1` reads above 100 µM.
The molecule `COc1ccc2nc3ccc(OC)cc3c(SCc3ccc([N+](=O)[O-])cc3)c2c1` gave a TGI above 100 µM.
`CC(C)(C)c1cc(C(C)(C)C)c(SS(=O)(=O)O)c(O)c1O` had a TGI above 100 µM.
For the molecule `NC(N)=N/N=C\c1cccc(OCc2ccccc2)c1`, the GI50 was 9.85 µM and the TGI turned out to be 23.8 µM.
Take `CC(=O)Nc1ccc(NC(=O)c2c(Cl)c(Cl)c(Cl)c(Cl)c2-c2nc3ccccc3[nH]2)cc1`: the TGI was above 100 µM.
The same measure, in the same setting: the value for `Nc1ncnc2c1nc(Cl)n2C1OC2COP(=O)(O)OC2C1O` (stereo not drawn) was above 300 µM; that for `COC(=O)Nc1nc2cc(OC)c(OC)cc2c(=O)[nH]1` was above 100 µM; that for `Nc1nc(Cl)c2ncn(Cc3ccc(CCl)cc3)c2n1` was 43 µM.
Regarding `CC(=O)NC(C)(C)C1CC=C(C)CC1` (stereo not drawn), the TGI is above 100 µM.
As to `Cc1ccccc1N=Nc1ccc(NC(=O)c2ccnn2C)c(C)c1`, the GI50 is above 100 µM and the TGI was above 100 µM.
`O=C(CC1(O)C(=O)Nc2c(Cl)ccc(Cl)c21)c1ccc2ccccc2c1` (stereo not drawn) yielded a TGI of 57 µM.
Take `O=C(CC(C(=O)c1ccco1)c1ccsc1)c1ccco1` (stereo not drawn): the TGI is above 100 µM.
Still for that read-out and setting: the value for `CC(=O)OCC1OC(n2c(-c3ccccc3)c(C(C)=O)c(-c3ccc(Cl)cc3)c(C#N)c2=S)C(OC(C)=O)C(OC(C)=O)C1OC(C)=O` (stereo not drawn) was above 100 µM.
For the molecule `COc1ncc(-c2ccc3nccc(-c4ccnnc4)c3c2)cc1NS(=O)(=O)c1ccc(F)cc1F`, the GI50 was 0.00928 µM and < 0.01 µM; the TGI is 1.21 µM and 1.11 µM.
For `C[S+](C)CCOC(=O)C(=[N+]=[N-])c1ccc([N+](=O)[O-])cc1`, the TGI was above 100 µM.
As to `C=C(CN1C(=O)[C@H]2CCCN2C(=O)c2ccccc21)c1ccc(C(=O)O)cc1`, the GI50 was above 100 µM and the TGI was above 100 µM.
As for `COC(=O)C1(c2cc3ccccc3n2S(=O)(=O)c2ccccc2)CC2C=CC1NC2` (stereo not drawn), the TGI worked out at 11 µM.
Turning to `O=c1ccn(C2OC(CO/N=C/c3ccc(O)c(O)c3O)C(O)C2O)c(=O)[nH]1` (stereo not drawn), the GI50 was 27.2 µM and the TGI was determined as 66.7 µM.
On to `O=C1CCC(=O)N1Cc1ccccc1N=[N+]([O-])c1ccccc1CN1C(=O)CCC1=O`, for which the TGI was above 100 µM.
Take `CCOc1ccc(-c2nonc2NC(=O)c2cccc(C)c2)cc1OCC`: the GI50 is above 100 µM and the TGI was above 100 µM.
Consider `O=C(CN1CCN(CCCOc2c(-c3ccccc3)oc3ccccc3c2=O)CC1)Nc1ccc(Cl)cc1C(=O)c1ccccc1Cl`, for which the GI50 was 26.9 µM and the TGI was above 100 µM.
In turn, `CC(=O)N1OC(C)CC1Nc1ccc(Br)cc1` (stereo not drawn) gave a TGI above 100 µM.
With `N#Cc1c(Cl)cccc1Oc1ccc(S(=O)(=O)/N=C(\NN)Nc2ccc(Cl)cc2)cc1`, the TGI was above 100 µM.
For `O=C(COc1ccc(OCC(=O)N2C(=O)CSC2=Nc2ccccc2)cc1)N1C(=O)CSC1=Nc1ccccc1`, the TGI was determined as 87.4 µM.
On the same count and under the same terms, the result for `N/C(=C\c1ccc(OCc2ccccc2)c(OCc2ccccc2)c1[N+](=O)[O-])C(=O)O` reads above 100 µM; that for `Nc1nc(N)c2c(n1)NC(=O)c1c(c3ccccc3n1Cc1ccc(Cl)cc1)C2`, 56.6 µM.
On to `CC(=O)OC1COC(Nc2ccc(C(C)=O)cc2)C(OC(C)=O)C1OC(C)=O` (stereo not drawn), for which the TGI was above 100 µM.
The same measure, in the same setting: the value for `c1ccc(N=C(Nc2ccccc2)N2CCCCC2)cc1` was above 100 µM.
On to `O=C(CNc1ccc2c(c1)C(=O)c1ccccc1C2=O)Nc1ccc2c(c1)C(=O)c1ccccc1C2=O`, for which the GI50 is 1.63 µM and the TGI amounted to 3.02 µM.
As to `CCn1c(CN2CCN(Cc3ccccc3)CC2)nc2cc(NC(=O)c3cccs3)ccc21`, the GI50 is 33.2 µM and the TGI is above 100 µM.
The molecule `c1cc(Sc2nc(Sc3ccncc3)nc(Sc3ccncc3)n2)ccn1` gave a TGI above 100 µM.
`O=C1NC(=O)C2C(=O)NC(=O)C1C2(c1ccccc1)c1cc[nH]c1` (stereo not drawn) displayed a TGI above 100 µM.
`CCN=C(NNc1ccc([N+](=O)[O-])cc1)P(=O)(OC(C)C)OC(C)C` displayed a TGI above 100 µM.
Turning to `N#CCCCC[N+]12CN3CN(CN(C3)C1)C2`, the TGI is above 100 µM.
With `CC(C)=NN/C(=N\S(=O)(=O)c1ccc(C)cc1)Nc1ccc(Cl)cc1`, the TGI was above 100 µM.
Same read-out and setting: the result for `O=C(CCc1ccccc1)ON1C(=S)NC(c2ccccc2)(c2ccccc2)C1=S` reads above 100 µM.
As to `CCCc1cc2c(=O)c(C(=O)OC)c[nH]c2cc1N(CC)CC`, the GI50 was 68.5 µM and the TGI is above 100 µM.
On the same counts, the results for `Fc1ccc2c(c1)c(-c1nc(-c3c[nH]c4ncccc34)cs1)cn2CCCN1CCCCC1` are 1.65 µM and 3.06 µM.
Consider `COC1CC2CCC(C)C(O)(O2)C(=O)C(=O)N2CCCCC2C(=O)OC(C(C)CC2CCC(O)C(OC)C2)CC(=O)C(C)C=C(C)C(O)C(OC)C(=O)C(C)CC(C)/C=C/C=C/C=C1C` (stereo not drawn), for which the GI50 is below 0.005 µM and the TGI came out at 13.7 µM.
Take `CCCCc1c2c(nc3c1CCCC3O)CCCC2` (stereo not drawn): the TGI was above 100 µM.
As to `O=c1nc2n(-c3ccc(Cl)cc3)c3ccc([N+](=O)[O-])cc3cc-2c(=O)[nH]1`, the GI50 was 33 µM and the TGI came to 59.8 µM.
On the same counts, the results for `O=C(c1ccco1)c1nc2cc(Cl)ccc2[n+]([O-])c1C(F)(F)F` are 79.5 µM and above 100 µM.
On to `COc1cc(OC)c2c(=O)cc(-c3ccccc3F)[nH]c2c1`, for which the TGI is above 100 µM.
Regarding `CCOP(=O)(CCCC(O)CNc1cc(Cl)nc(N)n1)OCC` (stereo not drawn), the TGI was above 100 µM.
The same measure, in the same setting: the result for `Cc1cc2nc(CCC(=O)O)c(=O)[nH]c2cc1C` reads above 100 µM.
The molecule `c1ccc2c(c1)nc1n2CCCn2ccnc2-1` showed a TGI above 100 µM.
The same measure, in the same setting: the result for `O=C(CC(C(=O)c1cccs1)c1ccsc1)c1cccs1` (stereo not drawn) reads above 100 µM; that for `CCC1(c2c(F)c(F)c(N)c(F)c2F)CCC(=O)NC1=O` (stereo not drawn), above 100 µM.
`COc1ccc(C(=O)Cn2c(C(=O)/C=C/c3ccco3)nc3ccccc32)cc1` returned a TGI above 100 µM.
With `CC(C)CC1C(=O)NCCC(NC(=O)C(N)Cc2ccc(O)cc2)C(=O)NC(Cc2ccccc2)C(=O)NC(Cc2ccccc2)NC1=O` (stereo not drawn), the TGI was above 100 µM.
On the same count and under the same terms, the value for `CC(C)c1ccc(C2C3=C(N=C4SCC(=O)N42)C(=O)c2ccccc23)cc1` (stereo not drawn) was above 100 µM; that for `O=[N+]([O-])c1nccn1CC(O)CN1CC1` (stereo not drawn) was above 100 µM; that for `Cc1ccc2c(=O)c3cccc(CC(=O)O)c3[nH]c2c1C` was above 100 µM.
`COc1c(C)c2c(c(=O)c3c(C)cccc3n2C)c2c1c(=O)c1c(C)cccc1n2C` returned a TGI above 10 µM.
Turning to `N#Cc1nc2c(S(=O)(=O)c3ccccc3)c(N)n(Cc3cccnc3)c2nc1C#N`, the GI50 was above 100 µM and the TGI was above 100 µM.
The molecule `COc1ccc2c(=O)c3ccoc3n(CC=C(C)C)c2c1` had a TGI above 100 µM.
On the same count and under the same terms, the value for `C=CC[N+]12CN3CN(CN(C3)C1)C2` was 57.2 µM.
Still for that read-out and setting: the value for `Oc1ccccc1C=NCc1ccco1` was above 100 µM.
In turn, `O=c1[nH]/c(=C/c2ccc(OCc3ccccc3)cn2)c(=O)[nH]/c1=C/c1ccc([N+](=O)[O-])cc1` displayed a TGI above 100 µM.
`O=C(NC(CS)C(=O)O)c1cccc2c(=O)c3ccccc3[nH]c12` (stereo not drawn) had a TGI above 100 µM.
Same read-out and setting: the value for `CSc1nc(Cl)c(Br)c(Sc2nc(N)nc3nc[nH]c23)n1` was 22 µM; that for `Clc1cc(Cc2cc(Cl)c(Cl)c3c2OCOC3)c2c(c1Cl)COCO2` was above 100 µM.
Same read-out and setting: the value for `C=CC(c1ccccc1)[C@@]1(OC(C)=O)C(=O)C(=O)OC1C1COC(C)(C)O1` (stereo partly drawn) was 31.6 µM; that for `N#Cc1c(NN)nc(NN)c(C#N)c1-c1ccccc1` was above 100 µM; that for `Nc1nc(N)c(C2=CCNCC2)c(=O)[nH]1` was above 100 µM.
As for `O=c1ccc2nc(-c3ccccc3)nn(-c3ccccn3)c-2c1`, the GI50 was above 100 µM and the TGI was above 100 µM.
`CC1(C)O[C@@H]2[C@@H](COC(=O)c3ccccc3)C[C@@H](C#N)[C@@H]2O1` gave a TGI above 100 µM.
As for `Nc1c(Br)cc(Br)c2c1[nH]c(=O)c1ccccc12`, the GI50 is 12.3 µM and the TGI is above 93.6 µM.
As for `CC(C)(C)c1cc(-c2cc(C(C)(C)C)n(-c3ccccc3)n2)nn1-c1ccccc1`, the TGI was above 100 µM.
The same measure, in the same setting: the value for `O/C(=C\c1nc2ccccc2nc1/C=C(\O)c1ccc(Cl)cc1)c1ccccc1` was above 100 µM.
In the case of `N[C@@H]1CCCC[C@H]1N.O=C([O-])C(=O)[O-].[Pt+4]`, the GI50 is 35.3 µM and the TGI was above 100 µM.
With `CC[C@H](Nc1nc(NCc2cnc(C)cc2C)c2ncn(C(C)C)c2n1)[C@@H](C)O`, the GI50 was 0.361 µM and the TGI was above 100 µM.
